Results from PubChem BioAssay (NCATS).
Inconclusive results, whose numbers are uncertain, are shown with a selection of clear calls. Potencies of inconclusive entries are doubtful fits and often do not repeat. The source made the active and inactive calls. Calls come from the whole dose curve; as a rule, active = well fitted inhibition curve with a large enough effect; inconclusive = small, poorly fitted or top-dose-only effect; inactive = flat fitted curve, though single readings scatter.

Target: Flap endonuclease 1 (Homo sapiens) (UniProt P39748)
UniProt P39748, sequence (P39748 whole entry, looked up): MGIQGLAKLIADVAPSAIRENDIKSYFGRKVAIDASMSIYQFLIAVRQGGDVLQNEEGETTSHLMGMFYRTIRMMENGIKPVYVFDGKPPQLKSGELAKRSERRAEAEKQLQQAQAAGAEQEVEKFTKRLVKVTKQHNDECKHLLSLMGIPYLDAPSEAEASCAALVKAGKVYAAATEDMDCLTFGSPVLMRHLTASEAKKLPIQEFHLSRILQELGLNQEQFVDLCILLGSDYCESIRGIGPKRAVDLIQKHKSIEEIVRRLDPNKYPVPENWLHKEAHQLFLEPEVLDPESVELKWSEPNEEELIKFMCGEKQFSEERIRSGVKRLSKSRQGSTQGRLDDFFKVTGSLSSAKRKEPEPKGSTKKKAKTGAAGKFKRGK
Assay: qHTS Assay for the Inhibitors of FEN1: Confirmatory Assay for Cherry-picked Compounds (AID 720498); note: nearly all actives have a fitted effect of over 60% in size
Details: FEN1 flap cleavage, TAMRA/BHQ2 fluorogenic DNA substrate
From the text: The major human flap endonuclease FEN1 is an efficient structure-specific enzyme that recognizes and cleaves a 5'-unannealed DNA flap. It belongs to the RAD2 family nucleases, which are involved in DNA metabolism and are highly conserved in prokaryotes and eukaryotes. FEN1 is a key enzyme in DNA replication, repair and maintenance of genomic stability. 5'-flap removal by FEN1 is critical for Okazaki fragment processing during lagging strand DNA synthesis, long-patch base excision repair (LP BER), and regulating or facilitating recombination events. […] Cells from fen1-/- blastocysts show increased apoptotic cell death after ionizing radiation treatment, and chicken cells lacking the fen1 gene are hypersensitive to DNA alkylating agents, e.g. methylmethane sulfonate (MMS) and N-methyl-N'-nitro-N-nitrosoguanidine (MNNG), as well as hydrogen peroxide. […] Elevation of FEN1 in hormone refractory human prostate cancer cells also correlates with resistant to various anticancer agents including ionizing radiation, doxorubicin, paclitaxel and vinblastine. […] This assay is used to confirm the activity of selected compounds against the human Fen1. Inhibition is the desired outcome for this screen. NIH Chemical Genomics Center [NCGC] NIH Molecular Libraries Probe Centers Network [MLPCN] MLPCN Grant: MH092154 Assay Submitter (PI): David Wilson, National Institute of Aging
Three uL of reagents (buffer in column 3 and 4 as negative control and 10 nM FEN1 in columns 1, 2, and 5-48) were dispensed into 1,536-well black solid-bottomed plate. Compounds (23 nL) were transferred via Kalypsys pin tool equipped with 1536-pin array (10 nL slotted pins, V&P Scientific, San Diego, CA). The plates were then incubated for 15 min at room temperature, and 1 uL substrate (50 nM final concentration) were added to start the reaction read twice at 0 min read and 15 min on ViewLux reader equipped with 525 nm excitation and 598 nm emission filters. Throughout the screen, reagent bottle and all liquid lines were chilled and made light-tight to minimize reagent degradation. FEN1 Substrate. All oligodeoxynucleotides were purchased from Biosearch Technologies, Inc., (Novato, CA). Double-stranded DNA substrate containing double flap strands for fluorogenic assay was prepared from three oligodeoxynucleotides: quencher (5'-TCACCCTCGTACGACTCATCCAAAAAAGC - BHQ2), flap (5'-Tamra-GC AAAAAATTTATTCATCAACTGACATCTCCTAC) and template (5'-GT AGGAGATGTCAGTTGATGAATTGAGTCGTACGAGGGTGA-3') strand by annealing. The 5' end of the downstream flap strand was labeled with 6-carboxytetramethyl rhodamine (6-TAMRA) as the fluorophore donor, whereas the 3' end of the quencher flap strand was labeled with a Black Hole Quencher-2 (BHQ-2) as the matching quencher.
Potency is the fitted concentration of half-maximal effect; tags give direction and shape of the fitted curve.

Structure (SMILES)	Potency
O=c1c2cc(O)c(O)cc2oc2cc(O)c(C3OC(CO)C(O)C(O)C3O)c(O)c12 (stereo not drawn)	inconclusive: 84.9 µM [inhibitor, single point]
CNC(=O)COC(=O)c1cc(-c2ccco2)nc2ccccc12	inconclusive: 67.5 µM [inhibitor, partial curve]
O=S(=O)(Nc1nccs1)c1ccc(Nc2nnc(-c3ccccc3)c3ccccc23)cc1	inconclusive: 47.8 µM [inhibitor, partial curve]
N#C/C(=C\c1ccc(O)c(O)c1)C(=O)Nc1cccc2ncccc12	inconclusive: 30.1 µM [inhibitor, partial curve]
Cn1cncc1CNc1ncnc2ccc(-c3ccc4c(c3)OCO4)cc12	inconclusive: 42.6 µM [inhibitor, partial curve]
C=CCOc1ccc(Br)cc1/C=C1/SC(=Nc2ccc(C(=O)O)cc2)NC1=O	inconclusive: 42.6 µM [inhibitor, partial curve]
Cc1c(CCC(=O)O)c(=O)oc2c(C)c3occ(-c4ccc(Br)cc4)c3cc12	inconclusive: 67.5 µM [inhibitor, partial curve]
Cc1cc(C)n2nc(C(=O)N/N=C/c3c4ccccc4cc4ccccc34)nc2n1	inconclusive: 37.9 µM [inhibitor, partial curve]
CCCN1CCN(CCCNC(=O)c2cc3c(Cl)nc4ccccc4c3s2)CC1	inconclusive: 47.8 µM [inhibitor, partial curve]
CCN1/C(=C\c2ccc3ccccc3[n+]2CC)Sc2cc(C)ccc21	active: 21.3 µM
CCN1CCN(c2cccc(Nc3nn4c(=O)c5ccccc5nc4s3)c2)CC1	inconclusive: 60.1 µM [inhibitor, partial curve]
O=S(=O)(O)c1cc(O)c(N=Nc2ccc(O)cc2O)c2ccccc12	active: 84.9 µM
Cc1ccc(C)n1-c1cccc(C(=O)O)c1	active: 21.3 µM
CCc1ccc(S(=O)(=O)Nc2cc(SCC(=O)O)c(O)c3ccccc23)cc1	active: 60.1 µM
CC(=O)c1sc2nc(CSc3nnnn3-c3ccccc3)[nH]c(=O)c2c1C	inconclusive: 75.7 µM [inhibitor, partial curve]
O=C1NC(=Nc2ccccc2Cl)S/C1=C\c1cc([N+](=O)[O-])ccc1O	inconclusive: 47.8 µM [inhibitor, partial curve]
O=C(O)c1cc(O)c2c(c1)C(=O)c1cc(O)cc(O)c1C2=O	inconclusive: 60.1 µM [inhibitor, partial curve]
COc1cc(/C=C2/SC(=S)N(c3c(C)n(C)n(-c4ccccc4)c3=O)C2=O)ccc1O	inconclusive: 53.6 µM [inhibitor, partial curve]
CC(NC1=CC(=O)c2cccnc2C1=O)C(O)c1ccccc1 (stereo not drawn)	inconclusive: 33.8 µM [inhibitor, partial curve]

Structure (SMILES)	Potency
COc1ccc2c(=O)n3nc(Nc4cccc(N5CCN(C)CC5)c4)sc3nc2c1	inconclusive: 47.8 µM [inhibitor, partial curve]
CN(C)C(CNC(=O)c1cc(-c2ccco2)nc2ccccc12)c1ccccc1 (stereo not drawn)	inconclusive: 67.5 µM [inhibitor, partial curve]
O=C(NNc1cc(N2CCOCC2)nc(N2CCOCC2)n1)c1ccc([N+](=O)[O-])cc1	inconclusive: 84.9 µM [inhibitor, single point]
Cn1cnnc1SCC(=O)Nc1sc2c(c1C(N)=O)CCC2	inconclusive: 75.7 µM [inhibitor, partial curve]
Cc1cc(/C=C2\C(=N)N3N=C(c4ccco4)SC3=NC2=O)c(C)n1Cc1ccccc1	inconclusive: 84.9 µM [inhibitor, partial curve]
NS(=O)(=O)c1ccc(N=Nc2c[nH]c(=O)c(O)c2)cc1	inconclusive: 75.7 µM [inhibitor, partial curve]
O=C(N/N=C/c1cc(Cl)c(O)c(Cl)c1)c1cc2c(ccc3ccccc32)o1	inconclusive: 42.6 µM [inhibitor, partial curve]
CCOC(=O)c1cc2c(=O)n3ccccc3nc2n(Cc2ccco2)c1=NC(=O)c1c(F)cccc1Cl	inconclusive: 67.5 µM [inhibitor, partial curve]
Cc1cccc(NC(=O)CNC(=O)CCc2nc3sc4c(c3c(=O)[nH]2)CCCC4)c1C	inconclusive: 67.5 µM [inhibitor, partial curve]
CN(CCC#N)C(=O)COC(=O)c1c2c(nc3ccccc13)/C(=C/c1ccco1)CC2	active: 67.5 µM
O=C(Nc1ncccc1O)c1c(O)c2ccccc2[nH]c1=O	inconclusive: 75.7 µM [inhibitor, partial curve]
CC1(C)Cc2c(C#N)c(N3CCN(C(=O)c4ccco4)CC3)nc(-c3ccco3)c2CS1	inconclusive: 75.7 µM [inhibitor, partial curve]
O=c1cc2oc3cc(O)c(O)cc3c(-c3ccccc3[N+](=O)[O-])c-2cc1O	inconclusive: 23.9 µM [inhibitor, full curve]
COc1cc(/C=C(\C#N)c2nc3ccc(C)cc3[nH]2)cc([N+](=O)[O-])c1O	inconclusive: 42.6 µM [inhibitor, partial curve]
O=C1c2cccc3cc([N+](=O)[O-])cc(c23)C(=O)N1/N=C/c1ccc(O)cc1O	active: 42.6 µM
CN1/C(=C\C=C2/SC(=S)NC2=O)C(C)(C)c2ccccc21	active: 67.5 µM
Oc1ccc(NCc2ccccc2OCc2ccccc2F)cc1	inconclusive: 84.9 µM [inhibitor, single point]
O=C(O)c1ccccc1NS(=O)(=O)c1ccc(N/N=C/c2cccc(O)c2O)c([N+](=O)[O-])c1	active: 47.8 µM
CC(=O)Nc1ccc(C=NNc2ccc(S(=O)(=O)Nc3ccccc3C(=O)O)cc2[N+](=O)[O-])cc1	active: 84.9 µM
